Hit rate of the full screen: of about 310,000 compounds, about 2,200 (0.71%) showed an effect of 50% or more. Effects have a minus sign here. The list shows a part of the results.
biological target: human ether-à-go-go-related gene (hERG) potassium channel (human, UniProt Q12809); assay: primary screen, population patch clamp on CHO cells stably expressing hERG
Sequence (Q12809 whole entry, looked up): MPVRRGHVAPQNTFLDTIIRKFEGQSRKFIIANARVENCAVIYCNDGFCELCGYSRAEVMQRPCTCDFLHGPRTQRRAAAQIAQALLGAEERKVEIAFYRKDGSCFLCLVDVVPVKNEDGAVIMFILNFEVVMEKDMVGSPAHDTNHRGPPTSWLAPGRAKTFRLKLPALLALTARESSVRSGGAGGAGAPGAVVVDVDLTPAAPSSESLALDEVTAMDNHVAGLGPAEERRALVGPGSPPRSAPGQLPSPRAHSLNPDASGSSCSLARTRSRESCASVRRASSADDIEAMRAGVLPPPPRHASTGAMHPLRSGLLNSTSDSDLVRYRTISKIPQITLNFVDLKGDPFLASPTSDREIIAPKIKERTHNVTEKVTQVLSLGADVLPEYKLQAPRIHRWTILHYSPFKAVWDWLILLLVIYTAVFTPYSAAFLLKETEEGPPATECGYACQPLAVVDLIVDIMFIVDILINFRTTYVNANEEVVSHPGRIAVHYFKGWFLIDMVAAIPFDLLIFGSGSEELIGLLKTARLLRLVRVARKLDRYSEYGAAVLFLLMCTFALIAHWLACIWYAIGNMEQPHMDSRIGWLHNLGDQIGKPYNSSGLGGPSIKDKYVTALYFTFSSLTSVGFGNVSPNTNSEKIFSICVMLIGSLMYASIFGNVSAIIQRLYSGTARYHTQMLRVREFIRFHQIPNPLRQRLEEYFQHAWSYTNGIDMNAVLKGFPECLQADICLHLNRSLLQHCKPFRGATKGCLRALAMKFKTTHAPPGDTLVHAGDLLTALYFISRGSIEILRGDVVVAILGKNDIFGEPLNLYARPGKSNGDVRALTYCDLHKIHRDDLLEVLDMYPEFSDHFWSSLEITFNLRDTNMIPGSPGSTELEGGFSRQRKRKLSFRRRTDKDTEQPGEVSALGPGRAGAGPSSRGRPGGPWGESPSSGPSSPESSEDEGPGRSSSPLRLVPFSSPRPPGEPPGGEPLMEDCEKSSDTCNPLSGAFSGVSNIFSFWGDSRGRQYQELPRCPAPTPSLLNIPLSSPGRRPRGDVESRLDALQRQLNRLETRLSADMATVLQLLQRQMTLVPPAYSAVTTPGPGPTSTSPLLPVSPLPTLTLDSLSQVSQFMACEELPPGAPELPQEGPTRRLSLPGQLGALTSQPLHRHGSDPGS

| Structure (SMILES) | hERG current change (%, negative = inhibition) at 1uM [%] |
| --- | --- |
| Cc1ccc(Nc2ccc(C(=O)N3CCCC3)cn2)c(C)c1 | 7.57 |
| CC(C)CCNC(=O)CN(C(=O)CCC(=O)Nc1nccs1)C1CCCCC1 | 3.83 |
| Cc1ccc(Nc2nc(N3CCOCC3)nc(N3CCOCC3)n2)cc1Cl.Cl | 9.69 |
| O=c1cc(/C=C/c2ccccc2)oc2ccccc12 | 6.42 |
| COc1ccccc1NC(=O)Cc1noc(CSc2cc(C)c3ccccc3n2)n1 | -2.5 |
| O=C(CSc1nnc(C2CC2)n1-c1ccccc1)NCCc1ccc(F)cc1 | -0.787 |
| O=C1CNC(=O)/C1=C/c1ccc(Br)cc1 | 10.1 |
| O=C(c1ccc2nccnc2c1)N1CCN(c2ccccc2)CC1 | 14.2 |
| CCOC(=O)c1c(CN2CCOCC2)n(-c2ccccc2)c2cc(Br)c(OC)cc12 | 2.51 |
| c1ccc(Cn2c(SCc3cn4cccnc4n3)nnc2-c2ccco2)cc1 | -0.242 |
| CC1=NN(C(=O)c2ccc(Cn3nc(C)c([N+](=O)[O-])c3C)o2)C(O)(C(F)(F)F)C1 (centres unmarked) | -14.6 |
| O=C(NCC1CCCO1)C(c1ccc(F)cc1)N(CC1CCCO1)C(=O)c1ccc(-c2ccccc2)[nH]1 (centres unmarked) | 2.32 |
| CCOC(=O)CSc1nc(-c2ccccn2)ncc1OC | 5.74 |
| CCN(CC)S(=O)(=O)c1ccc(NC(=O)CCC2CCCCC2)cc1 | 1.47 |
| Cc1cc(C)c(C)c(S(=O)(=O)N2CCN(C(=S)NCC3CCCO3)CC2)c1C (centres unmarked) | 7.28 |
| COc1ccc(S(=O)(=O)N(C(=O)c2ccncc2)c2ccc(OC(=O)c3ccncc3)cc2)cc1 | 6.3 |
| O=C(NC1CC1)c1ccc(S(=O)(=O)NCC2CCCCC2)cc1 | 12.4 |
| COc1cccc(Oc2ccc(C(F)(F)F)cc2NC(=O)c2cccc(F)c2)c1 | 3.33 |
| O=C(COC(=O)/C=C/c1ccc(OC(F)F)cc1)Nc1ccc(S(=O)(=O)N2CCCC2)cc1 | 0.851 |
| CCOc1ccc(NC(=O)CN(C)C(=O)Cc2sc(C)nc2-c2ccc(F)cc2)cc1OCC | 2.07 |
| CCC(=O)c1ccc(OCC(=O)Nc2ccccc2N2CCCCC2)cc1 | 16 |
| O=c1cc(Cl)[nH]c(=O)n1Cc1ccccc1 | 16.3 |
| CN1C(=O)/C(=C/c2ccc(OCc3ccccc3F)cc2)N(C)C1=S | 15.4 |

From article PMC4336329 (PLoS ONE, 2015)
